According to ChEMBL document CHEMBL4888484, “Replenishing the malaria drug discovery pipeline: Screening and hit evaluation of the MMV Hit Generation Library 1 (HGL1) against asexual blood stage Plasmodium falciparum ,using a nano luciferase reporter read-out” (2022):
The campaign covered roughly 150,000 compounds. About 540 (0.36%) showed an effect of 50% or more. This is one part of the list.

System: Plasmodium falciparum
Experiment: Primary screen in NF54 nanoGlo assay, in single point, at 2uM, 72h; a lower Z score goes with more inhibition
Assay type: functional, Erythrocyte
Settings: timepoint 72 hour

Compound	% Inhibition [%]	Z score
O=C(NCc1ccc(-n2cncn2)nc1)c1ccccc1F	-9	1.27
Cc1nc(C2CC2)oc1C(=O)N1CCn2c(cc3ccc(Cl)cc32)C1	14	-1.78
Cn1cnnc1[C@H](CO)Nc1ncc(C(F)(F)F)cc1Cl	1	-0.08
O=C(COc1ccc(Cl)cc1)Nc1ccc2nc3n(c(=O)c2c1)CCCC3	6	-1.1
Cc1c(-c2ccc(Cl)cc2)nnn1Cc1nnc(C(C)C)s1	-11	2
CC(C)CC[C@@]1(C2CC2)NC(=O)N(Cc2noc(C3CC3)n2)C1=O	5	-0.7
CS(=O)(=O)[C@H]1CCN(C(=O)c2cnc3ccccc3n2)C1	-17	2.93
C[C@H](NC(=O)Nc1ccc2c(c1)OC1(CCCCC1)O2)c1ccon1	16	-1.84
Cc1cnc(C(C)NC(=O)NC(C)Cc2ccsc2)s1 (stereo unspecified)	0	-0.02
COc1ccc(NC(=O)N2CCN(C3=Nc4ccccc4Oc4c(OC)cccc43)C[C@@H]2C)cc1	4	-0.73
C[C@@H](c1ccncc1)N(C)Cc1cc(-c2ncccn2)ccc1OCC(=O)O	-2	0.32
O=C(Nc1ccc(F)cc1F)c1ccc(-c2noc(C3CCCC3)n2)cc1	-6	0.6
CCc1ccc(-c2nccn2CCN2CCOCC2)o1	0	-0.04
COc1ccc(-c2cnc(C(=O)Nc3nc4ccccc4s3)o2)cc1	-7	0.93
O=C1[C@@H]2[C@H](Cc3ccc(O)cc3)N[C@]3(C(=O)Nc4ccccc43)[C@@H]2C(=O)N1c1ccc(Cl)cc1	2	-0.45
COCCn1c(C[C@H]2CCN(C(=O)c3cc(Cl)ccc3OC)C2)nc2cccnc21	-8	0.74
CCOc1ccc(N2C[C@@H](C(=O)NCc3ccc(-c4csc(C)n4)o3)CC2=O)cc1	-9	1.3
Cc1nc2n(c(=O)c1CCN1CCC(C(=O)c3ccc(F)cc3O)CC1)CCCC2	-4	0.51
O[C@H](c1nc(C2CC2)n[nH]1)C(F)(F)F	-4	0.65
Cc1cc(C)n(CCCN(C)CCC(C)(C)O)n1	-1	0.22
CN(CCn1cccn1)Cc1ccc(C(=O)O)s1	8	-0.94

Compound	% Inhibition [%]	Z score
Cc1ccc2[nH]cc(-c3nc(C)cc(C(=O)O)n3)c2c1	-12	1.29
Cc1cccc(C2(C(=O)NCCn3ncnn3)CCCCC2)c1	-6	0.95
CCN(CC)c1nc2c(c(=O)n(C)c(=O)n2C)n1CC(=O)c1ccc(OC)c(OC)c1	-6	0.85
CC1CCCC(NC(=O)c2cnn3c4c(cnc23)CCCCCC4)C1C (stereo unspecified)	-11	1.63
COC1CCC(N(C)C(=O)C2CCC3CCCCC3C2)CC1 (stereo unspecified)	-2	0.38
COC(=O)CCn1cc(-c2cc(C3CCCC3)nc(N)c2C#N)cn1	-3	0.33
CCn1nc(C)c([C@H](C)Nc2ccc(C)nn2)c1C	-16	2.43
Cc1noc(CCNC(=O)N(C)C2CC2)n1	18	-2.25
CCOC(=O)c1c(C)[nH]c(C(=O)N2CC(N(C)C)C2)c1C	-14	1.38
Cc1nc2ccc(CNC(=O)[C@@H](c3ccc4c(c3)OCO4)N(C)C)cc2[nH]1	-2	0.43
CC(Oc1ccccc1)C(=O)Nc1nc2n(n1)C(c1ccc(Cl)cc1)CC(=O)N2 (stereo unspecified)	-1	0.19
COc1cccc(CC[C@H]2CCCNC2)c1	0	0.06
Cc1cc(C)n(-c2ccc(-c3nnc(-c4cc5cc(Oc6ccccc6)ccc5[nH]4)s3)cc2)n1	40	-4.55
O[C@H](c1cccnc1)c1nccn1Cc1c(F)cccc1F	2	-0.34
Cc1nnccc1NC(=O)N(C)[C@H]1CCCC[C@H]1C(F)(F)F	-6	0.9
COC(=O)c1cc(NC(=O)c2cccc(C(F)(F)F)c2)c[nH]1	-4	0.63
COc1ccc(F)c(F)c1CN1CCC([C@H](C)N2CCN(C)CC2)CC1	3	-0.38
O=C1COc2cc(C(=O)N3CC[C@H](Nc4ncccn4)[C@@H](O)C3)ccc2N1	10	-1.32
C=C(C)COc1ccc(NC(=O)N2CCCN3CCC[C@H]3C2)cc1	-10	2.05
O=C(CN1C(=O)c2ccccc2C1=O)N[C@H](c1ccccc1)C1CC1	6	-0.56
CC(=O)N[C@@H](C)Cc1nc(-c2ccc(F)c(F)c2)nn1CCO	0	-0.03

Compound	% Inhibition [%]	Z score
CCn1cc(-c2n[nH]cc2C(=O)NCCS(=O)(=O)N(C)C)cn1	-5	0.65
Cn1cc(-c2nc(C(=O)N3CCN(c4ccccc4)CC3)cs2)c2cccnc21	-17	2.85
O=C(C#Cc1ccccc1)N1CCC[C@H](CCC(=O)N2CCOCC2)C1	-14	2.15
COc1cccc(CNC2(Cc3cc(CN4CCN(c5ccccc5)CC4)on3)COC2)c1	13	-1.53
C=C(C)CN(C)c1ccc(C(=O)NCC[C@H]2CCCCN2C)cn1	-7	0.98
O[C@@H](Cn1ccnc1-c1cccnc1)c1cccc(Cl)c1	-19	1.68
Cc1ccc(C)c(S(=O)(=O)NCCNC(=O)c2n[nH]c(C)c2C)c1	7	-0.91
CC(C)N1C[C@@H](NCc2cccc(O)c2)C[C@H]1C(=O)N1CCN(c2cccc(C(F)(F)F)c2)CC1	-5	0.54
COc1cc(CNCCCN2CCOCC2)ccc1OCc1ccc(Cl)cc1	50	-4.4
CC(C)(C)n1ncnc1NC(=O)c1cc(Cl)cc(Cl)c1	39	-4.33
COc1cc(CN2CCN(Cc3c[nH]nc3C3CCCCC3)C[C@@H]2CCO)cc(OC)c1	-3	0.59
Cc1cccnc1-c1noc(C[C@H]2C(=O)NCCN2C(C)C)n1	-15	2.11
CN1CCc2[nH]nc(C(=O)N(C)Cc3csc(-c4ccccc4)n3)c2C1	-17	3.37
COC(=O)N1CC(C)(NCc2cccc(C#N)c2)C1	-2	0.45
COc1ccc(OCC(=O)Nc2cc(S(=O)(=O)N3CCCC3)ccc2OCC(F)(F)F)cc1	-7	0.83
Cc1nc(-n2nc(C)c(Cc3ccccc3Cl)c2O)sc1C(=O)Nc1ccccc1	0	0.01
Cc1n[nH]c(C2CN(C(C)C(=O)N(C)Cc3ccco3)CCO2)n1 (stereo unspecified)	-1	0.21
CCN(CC)c1nc2cc(C(=O)NCc3ccc(F)cc3F)ccc2c(=O)n1-c1ccccc1	-5	0.86
Cc1ccc(Br)cc1N1CC[C@@H](C(=O)NCc2ccco2)C1=O	-10	1.62
CC(=O)N1CCC[C@H](c2nc(C3CCCCC3)no2)C1	-14	1.44
CCOc1ccc(S(=O)(=O)Nc2cc(OC)c3nc(NC(=O)c4ccccc4)sc3c2)cc1	-17	2.58

Compound	% Inhibition [%]	Z score
Cc1occc1CN(C)C(=O)N[C@H]1CCCS(=O)(=O)C1	-3	0.47
CC(O)CNc1cc(NC2CCCC2Cc2ccccn2)ncn1 (stereo unspecified)	2	-0.32
CN(C)C(=O)c1ccc(CN2CCc3c(Cl)cccc32)[nH]1	-13	1.48
O=C(C#Cc1ccccc1)Nc1ccccc1-c1ccccc1	-27	3.16
Cc1ccc(OCCN)c(C(=O)N(C)[C@@H](C)c2cc(-c3ccccc3)[nH]n2)c1	-8	1.28
Cc1cnn(C2CN([C@@H](C(=O)NC3CC3)c3ccc(F)cc3)C2)c1	-9	1.17
Cc1nc(C2CC2)nc(N2CCN(C(=O)c3ccccc3Cl)CC2)c1Cc1c(F)cccc1Cl	6	-1.01
COc1ccc(C(=O)N[C@@H]2CCC[C@@H]2C(=O)N2CCN(C(C)C)CC2)cn1	-11	1.45
CCS(=O)(=O)N1CCN(CC(=O)NC2CCCCCC2)CC1	-11	1.28
CC(C)c1cc(C(=O)NC2CCCC2)[nH]n1	-8	1.22
CC(C)n1ccc(C(=O)N2CC3(CCCCC3)C2)n1	-10	1.91
O=S(=O)(CC1CCCC1)NCc1cccc2c1OCO2	-9	1.35
CCOc1cc(C(=O)N2CCC(c3cccs3)CC2)cc(OCC)c1OCC	1	-0.16
CC1(C)CN(C(=O)C2=CCCCO2)CC[S@+]1[O-]	-12	1.56
Cc1ncc(S(C)(=O)=O)c(N(C)CCc2ccccn2)n1	-9	1.42
Cn1c(CS(=O)(=O)Cc2cccc(F)c2)cc(=O)n(C)c1=O	-8	1.59
COC[C@@](C)(O)CNC(=O)c1cccs1	-7	1.06
CNC(=O)[C@@H]1C[C@H](NCc2cccc3ccccc23)CN1C1Cc2ccccc2C1	15	-2.03
CC[C@H](C)NS(=O)(=O)c1cccc(Br)c1	-16	1.85
COc1ccc(F)c(C(=O)N2CCCC[C@@H]2CCN2CCCC2)c1F	2	-0.33
